The target in this experiment is T1, 人C3dg-生物素 (human, UniProt P01024 in part, biotin label (site not stated)).
T1 construct: domain: C3dg; Captured on a BIAcore streptavidin sensor chip; also called 生物素标记的C3dg
Put plainly: SPR (BIAcore 3000), C3dg-biotin captured on a streptavidin chip. (In general: Surface plasmon resonance follows binding to a sensor surface in real time, without labels.)

T1 sequence (P01024 955-1303 limits assumed): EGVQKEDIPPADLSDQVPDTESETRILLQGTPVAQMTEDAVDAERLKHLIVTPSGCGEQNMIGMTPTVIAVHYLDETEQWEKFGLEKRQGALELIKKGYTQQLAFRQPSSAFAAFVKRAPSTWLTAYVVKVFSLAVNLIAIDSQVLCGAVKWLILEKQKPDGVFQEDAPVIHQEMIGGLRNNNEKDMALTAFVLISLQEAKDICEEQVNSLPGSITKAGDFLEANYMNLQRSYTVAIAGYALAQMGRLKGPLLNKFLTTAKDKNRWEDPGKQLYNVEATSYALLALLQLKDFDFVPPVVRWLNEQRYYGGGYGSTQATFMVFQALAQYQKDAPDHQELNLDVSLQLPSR

B1: 抗C3d单链抗体 VL-Linker-VH (scFv)
scFv: MASYELTQPPSVSVAPGQTARITCSGDALGDKYASWYQQKPGQAPVLVIYEDSKRPSGIPERFSGSNSGNTATLTISGTQAEDEADYYCQSQAGAVVGVFGGGTKLTVLGSGGSTITSYNVYYTKLSSSGS[skipping about 100 residues]GSVNHGVDFWGQGTLVTVSSA
notes: Selected from a human phage library, then expressed in CHO cells and purified, about 26 kD; also called ScFv; 人源抗补体C3d分子的单链抗体
Regarding B1, the binding result is reported as “binds”.

B2: 抗C3d单链抗体-DAF融合蛋白 (ScFv-DAF) (other)
chain: MASYELTQPPSVSVAPGQTARITCSGDALGDKYASWYQQKPGQAPVLVIYEDSKRPSGIPERFSGSNSGNTATLTISGTQAEDEADYYCQSQAGAVVGVFGGGTKLTVLGSGGSTITSYNVYYTKLSSSGS[skipping about 100 residues]GSVNHGVDFWGQGTLVTVSSAGGGSGGGGSDCGLPPDVPNAQPALEGRTSFPEDTVITYKCEESFVKIPGEKDSVICLKGSQWSDIEEFCNRSCEVPTRLNSASLKQPYITQNYFPVGTVVEYECRPGYRREPSLSPKLTCLQNLKWSTAVEFCKKKSCPNPGEIRNGQIDVPGGILFGATISFSCNTGYKLFGSTSSFCLISGSSVQWSDPLPECREIYCPAPPQIDNGIIQGERDHYGYRQSVTYACNKGFTMIGEHSIYCTVNNDEGEWSGPPPECR
notes: Secreted from CHO-K1 cells, about 55 kDa; also called C3d-ScFV-DAF
For B2, the binding result is on record as “binds”.

Values taken from patent CN110922480A (BEIJING KANGPUMEITE INNOVATION MEDICINE TECH CO LTD, dated 2020).
